Some of the results follow.
T1: UNK ZnF1-3 (human, UniProt Q9C0B0 31-174)
T1 sequence: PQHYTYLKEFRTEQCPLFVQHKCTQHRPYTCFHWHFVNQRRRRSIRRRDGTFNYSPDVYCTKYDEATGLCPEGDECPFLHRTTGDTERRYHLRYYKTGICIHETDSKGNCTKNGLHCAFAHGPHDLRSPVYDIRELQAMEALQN

B1: chr17:63010574:63010575:-_ENSG00000120063_ENST00000439174|hu_mus|motif|central (ssRNA)
RNA: GGGAGUUCUACAGUCCGACGAUCGAAGCAUUCCACCAGAAACUUUUGGACGUCUCUUAAGCAGUGGGGGUCCCCUUCAAAUUCGGGGAAAUAGUCUUUGAUGCUAACAACUUGCACUUUCUCCUCGAGCAAGUCUGUCUUGUUCAACAGAGGAUUGAGCAUCA
B2: chrX:77158196:77158197:+_ENSG00000131174_ENST00000481445|hu_hu|motif|central (ssRNA)
RNA: GGGAGUUCUACAGUCCGACGAUCUCCGACUUGUGUUGCUACAUAUGUCCAUGUAACAAUACAGAAAGUGGCUCCACGGGCGGAUACAGCAUUACCGUAUUUGUCAUGAAAAUCAGGUGUACGUUUCUGGUGGCUCUGCCUUGCCAACAGAGGAUUGAGCAUCA
B3: chr1:66486420:66486421:+_ENSMUSG00000015222_ENSMUST00000077355|mus_hu|motif|central (ssRNA)
RNA: GGGAGUUCUACAGUCCGACGAUCUAAUGUAUUUUUUUUAAAUAGGGAGAGAACCCUGCUAACAUCUACUUUCACAUAUCGGAAAUUGCAACACCAAAGGGUGCAGGAGACACAGAUACUGUGAAUAAAGAAGUAUAAUAUUCACAACAGAGGAUUGAGCAUCA
B4: chr1:154525626:154525627:-_ENSG00000160714_ENST00000292211|hu_mus|FALSE|FALSE (ssRNA)
RNA: GGGAGUUCUACAGUCCGACGAUCAUCAUCUUCAGACUUCUUGCCCUCGGCUGGCUCUUCCUCUUUCAUUUCAUAGUGAUCUAGGUCUUCUGUAUCCUCAGGCAUCUCUUCAUCUUCAUCUUCUGAAGACACUUCUUCCUGCGUCAACAGAGGAUUGAGCAUCA
B5: 169104512_169104632_79_3pUTR_ENSG00000198648_ENST00000355999|human|control|control (ssRNA)
RNA: GGGAGUUCUACAGUCCGACGAUCAGUUGACGAGCGGGAUACCUACAUGGUGUCCCUUUGCAAGACGCCAGUUAGAAAAUAACCCAAGUUGUAAGUUUCCGGCGCUUUACUUGCCGGUAUCCCUUUCCCACCUUGCCUAAUCUACAACAGAGGAUUGAGCAUCA
B6: chr19:45826695:45826696:-_ENSMUSG00000025220_ENSMUST00000026243|mus_mus|FALSE|FALSE (ssRNA)
RNA: GGGAGUUCUACAGUCCGACGAUCACCAAGUAUAACCACAUCCUUUGGAAAUCCUUCCAUUUUUGCAAUUUCAAAACAGCCUAACUUGCUGUAAAAUUCCAGAAUCCUUUUAUCAUCUGGUCUUACUUCACAGAAAGCCCCCCGCAACAGAGGAUUGAGCAUCA

These binders were tested against T1, UNK ZnF1-3 (assay: nsRBNS (natural sequence RNA bind-n-seq); RBNS binding buffer (assumed for nsRBNS): 25 mM Tris pH 7.5, 150 mM KCl, 3 mM MgCl2, 0.01% Triton X-100, 500 ug/ml BSA, 20 U/ml SUPERase-In, 4 C; UNK is unkempt and MSI1 is Musashi-1; names of the RNAs are library labels; protein concentration not given here; high values mean tight binding).

Row | Binder | binding signal [enrichment R]
1 | B1 | 0.43
2 | B2 | 0.681
3 | B3 | 2.04
4 | B4 | 0.33
5 | B5 | 0.786
6 | B6 | 0.825

Source: publication PMC12136788
